Laboratory results reported in the RNAGym collection of RNA variant scans (doi:10.1073/pnas.2313332121).
Variants at the floor of the assay are shown more often than the library holds them.

B1: TPR 5TU (parent)
chain: GGAUCUUCUCGAUCUAACAAAAAAGACAAAUCUGCCACAAAGCUUGAGAGCAUCUUCGGAUGCAGAGGCGGCAGCCUUCGGUGGCGCGAUAGCGCCAACGUUCUCAACUAUGACACGCAAAACGCGUGCUCCGUUGAAUGGAGUUUAUCAUG

Variants of: B1
Assay: polymerase ribozyme fitness, log enrichment relative to wild type (log ratio); higher = more active; in vitro selection for triplet polymerase activity
How it was run: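 After PCR construction and transcription, each subunit's mutant library from a heterodimeric triplet polymerase ribozyme was annealed with a biotinylated primer, the partner subunit and triplets. Incubation was frozen, at −7 °C, and extended constructs were gel-excised, bound to streptavidin beads and amplified by RT-PCR, in one selection round done in triplicate. Fitness is the logarithm of a genotype's enrichment divided by that of the wild type, from inverse-variance-weighted replicate averages of Illumina-sequenced inputs and outputs. The base of the logarithm is 2, and genotypes needed ≥10 input reads and ≥1 read per output.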

Polymerase ribozyme fitness (log ratio), ≤ -4.2:
GGAUCUUCUAGAUCUAACAAAAAAGACAAAUCUGCCUCAAAGCUUGAAAGCAUCUUCGGAUGCGGAGGCGGCAGCCUUCGGUGGCGCGAUAGCGCCAACGUUCUCAACUAUGACACGCAAAACGCGUUCUCCGUUGAAUGGCGUUUAUCAUG
GGAUCUUCUAGAUCUAACAAAAAAGACUAAUCUUCCACAAAGCUUGAGAGCCUCUUCGGAUGCAGAGGCGGCAGCCUUCGGUGGCGAGAUAGUGCCAACGUUCUCAACUAUCACACGCAAAACGCGUGCUCCGUUGAAUGGAGUUUAUCAUG
GGAUCUUCUAGAUCUAACAGAAAAGACAAAUCUGCCACAAGGCUUACGAGCAUCUUUGGAUGCAGAGGCGGCAGCCUUCGGUGGGGCGAUAGCGCCAACGUUCUCAACUAUGACACGCAAAACGCGUGCUCCUUUGAAUGGAGUUUAUCAUG
GGAUCUUCUAGAUCUAUCGAAAAAGACAAAUCUGCCACAAAGCUUGAGAGCAUCUUCCGAUGCAGAGGCGGCAGCCUUCGGUGGCGCGAUAGCGCCGACGUUCUCAACUAUGACACGCAAAACGCGUGCUCCGUUGAAUGGCGUUUAUCAUG
GGAUCUUCUAGAUCUAACAAAAAAGACAAAUCUGCCACAACGCUUGAGAGCAUCUUCGGAUGCAGAGGCGGCAGCAUUCGGUGGCGCGAUUGCGCGAACGUUCUCAACUAUGACACGCAACACGCGGGCUCCGUUGAAUGGAGUUUAUCAUG
GGAUCUUCUAGAUCUAACAAAGAAGACAAAUCUGCCACAAAGCUUGAGAGCAUCUUCGGAUGCAGAGGCGGCAGCCUUCGGUGGCGAGAUGGCUCCAACGUUCUCAACUAUGACACUCAAAACGCGUGCUCCGUUGAAUGGAGUUUAUCAUG
GGAUCUUCUAGAUCUAACAGAACUGGCAAAUCUGCCACAAAGCUUGAGAGCAUCUUCGGAUGCAGAGGCGGCAGCCUUCGGUGGGGCGAUGGCGCCAACUUUCUCAACUAUGACGCGCAAAACGCGUGCUCCGUUGAAUGGAGUUUAUCAUG
GGAUCUUCUAGAUCUAACAAAACAGACAAAUCUGCCACAAAGCUUGAGAGCAUCUUUGGAUGCAGAGGCGGCAACCUUCGGUGGCGCGAUACCGCCAUCGUUCUCAACUAUGACACCCAAAACACGUGCUCCGUUGAAUGGAGUUUAUCAUG
GGAUCUUCUAGAUCUAACAAAAAAGACAAAUCUGCCACGGAGCGUGAGAGCAUCUUCGGAUGCAGAGGCGGCAGCCUUCGGUGGCGCGAUUGCGCCAACGUUCUCAGCUAUGACACGCAAAACGCGUGCUCCGUUGAAUGGAGUUUAUCAUG
GGAUCUUCUAGAUCUAACAAAAUAGACAAAUCUGCCACAAAGCUUGAGAGCAUCUUCGGAUGCAGAGGCGGCAGCCUUCGGUUGCGCGAUAGCGCCAACGUUCUCAACUAUGACACGCAAAACGCGUGCUCCGUUGAAUGGAGUUUAUCAUG
GGAUCUUCUAGAUCUAACAAACAAGGCAAAUCUGCCACAAAGCUUGAGCGCAUCUUCGGAUGCAGAGGCGGCAGCCUUCGGUGGCGCGAUAGCGCCAACGUUCUCAACUAUGACACGCAAAACGCGUGCUCCGUUGAAUGGAGUUUAUCAUG
GGAUCUUCUAGAUCUAACAGAAAAGACAAAUCUGCCACAACGCUUGAGAGCAUCUUCGGAUGCAGAGGCGGCAGCCUUCGGUGGCGCGAUAGCGGCAACGUUCUCAACUAUGACACGCAAAACGCGUGCUCCGUUGAAUGAAGUUUAUCAUG
GGAUCUUCUAGAUCUAACAAAAAAGACAAAUCUGCCACAAAGCUUGGGAGCAUCUUCGGGUGCAGAGGCGGCAGCCUACGGUGGCGCGAUAGCCCCAACGUUCUCAACUAUGACACGCAAAACGCGUGCUCCGUUGAAUGGAGUUUAUCAUG
GGAUCUUCUAGAUCUAACAAAAAAGACAAAUCUGCCUCAAAGCUUGAGAGCAUCUUCGGAUGCAGAGGCGGCAGCUUUCGGUGGCGCGAUAUCGCCAAGUUUCUCAACUAUGACACGCAAAACGCGUGCUCCGUUGGAUGGAGUUUAUCAUG
GGAUCUUCUAGAUCUAACUAAAGGGACAAAUCUGCCACAAAGCUUGAGAGCAUCUUCGGAUGCAGAGGAGGCAGCCUUCAGUGGUGUGAUAGCGCCAACGUUCUCAACUAUGACACGCAAAACGCGUGCUCCGUUGAAUGGAGUUUAUCAUG
GGAUCUUCUAGAUCUAACAAAAAAGACAACACUGCCAUAAAGCUUGAGAGCAUCUUCGGAUGCAGAGGCGGCAGCCUUCGGUGGCGCUAUAGCGCCAACGUUCUCAGCUAUGACACGCAAAACGCGUGCUCCGUUGAAUGGAGUUUAUCAUG
GGAUCUUCUAGAUCUAACAAAAAAGACAAAUCUGCCACAAUGCUUGAGAGGAUCUUCGGAUGCAGAGGCGGCAGCCUUCGGUGGCGAGAUAGCGCCAACGUUCUCAACUAUGACACGCAAAACGCGUGCUCCGUUGAAUGGAGUUUAUCAUG
GGAUCUUCUAGAUCUAACAAAAAAGUCAAAUCAGCCACAAAGCUUGAGAGCAGAAUCGGAUGCAGAGGCGGCAGCCUUCGGUGGCGCGAUAGCGCCAACGUUCUCAACUCUGACACGCAAAUCGCGUGCUCCUUUGAAUGGAGUAUAUCAUG
GGAUCUUCUAGAUCUAACAAAAAAGACAAAUCUGCCACAAAGCUUGAGGGCAUCUUCGGAUGCAGAGGCGGCAGCUUUCGGUUGCGCGAUAGCGCCAACGUUCUCAACUAUGACACGCAAAACGCGUGUUCCGUUGAAUGAAGUUUAUCAUG
GGAUCUUCUAGAUCUAACAAAAAAGACAAAUCUGCCGCGAAGCUUGAGAGCAUCUUCGGAUGCAGAGGCGGCAUCCUUCGGUGGCGCGUUAGCACCAACGUUCUCAACUAUGACACGCAAAACGCGUGCUCCGUUGAAUGGAGUUGAUCAUG
GGAUCUUCUAGAUCUAACAAAAAAGACAAAUCUGCCACACAGCUUGAGAACAUCUUCGGAUGCAGAGGCGGCAGCCUUCGGUGGCGCGAUAGCGUCAACGUUCUCAACUAUGACACGCAAAACGCGUGCUCCGUUGAAUGGAGUUUACCAUG
GGAUCUUCUAGAUCUAACAAAAAAGACACAUCUGCCACAAAGCGUGAGAGCAUCUUCAGGUGCAGAGGCGGCAGCCUUCGGUGGCGCGAUAGCGCCUACGUUCUCAACUAUGACACGCAAAACGCGUGCUCCGUUGAAUGCAGUUUAUCAUG
GGAUCUUCUAGAUCUAACAAAAAAGACCAAUCUGCCACAAAGCUUGAGAGCAUCUUCGGAAGCAGAGGCGGCAGCUAUCGGUGGCGCGAUAGCGCCAACGUUCUCAACUAUGACACGCAAAACGCGUGCUCCGUUGAAUGGAGUUUCUCAUG
GGAUCUUCUAGAUCUAACAAAAAAGACAAAUCUGCCACAUAACUUGAGAGCAUCUUCGGAUGCAGAGGCGGCAGUCUUCGGUGGCGUGAUAGCGCCAACGUUCUCAACUAUGACACGCAAAACGCGUGCUCCGUUGAAUGGAGUUUAUCAUG
GGAUCUUCUAGAUCUAACAAAAAAGACAAAUCUGCCACACAGCUUGAGAGCAUCUUCGGAUGCAGAGACGGCAGCCUUCGGUGACGCGAUAGCACCAACGUUCUCAACUAUGACACACAAAACGCGUGCUCGGUUGAAUGGAGCUUAUCAUG
GGAUCUUCUAGAUCUAACAAAACAGACAAAUCUGCCACAAAGCUUGAGAGCAUCUUCGGAUGCAGAGGCGGCAGCCUUCGGUGGCGCGAUAGCGCCAACGUUCUCAACUAUGACACGCAAAACGCGUGCUCCGUUGAAUGGAGUUUAUCAUG
GGAUCUUCUAGAUCUAACAAUAAAGACAAAUCUGCCACAAAGCUUGAGAGCAUCUUCGGAUGCAGAGGCGGCAGCCUUCGGUGACGCGAUAGCGCCUACGUUCUCAACUAUGGCACGCAAAACGCGUGCUCCGUUGAAUGGAGUUUAUCAUG
GGAUCUUCUAGAUCUAACAAAAAAGACAAAUCUGCCACAUAGCUUGAGAGCAUCUUCGGAUGCAGAGGCGGCAGCCUUCGGUGGCGCGAUAGGGCCAACGUUUUCAACUAUGACACGCAAAACGCGUGCUCCGUUGAAUGGAGUUUAUCAUG
GGAUCUUCUAGAUCUAACAAAAAAGACACAUCUGCCACAAAUCUUGAGAGCAUCUUCGGAUGCAGAGACGGCAGCCUUCGGUGGCGCGCUAGCGACAACGUUCUCAACUAUGACACGCAAAACGCGUGCUCCGUUGAAUGUAGUUUAUCAUG
GGAUCUUCUAGAUCUAACAAAAAAGACAAAUCUGCCACAAGGCUUGAGAGCAUCUUCGGAUGCAGAGGCGGCAGCCUUCGGUGGCGCGAUAGCGCCAACGUUAUCAACUGUGACACGCAAAACGCGUGCUCCGUUGAAUGGAGUUUAUCAUG
GGAUCUUCUAGAUCUAACAAGAAAGACAGAUCUGCCACAAAGCUUGAGAGUGUCUUCGGAUGCAGAGGCGGCAGCCUCCGGUGGCGCGAUAGCGACAACGUUCUCAACUAUGACACGCAAAUCGCGUGCUCCGUUGAAUGGAGUUGAUCAUG
GGAUCUUCUAGAUCUAACAAAAAAGACAAAUCUGCCACAAAGCUUGGGAGCAUCUUCGGAUGCGGAGGCGGCAGCCUUCGUUGUCGCGAUAGCGCCAACGUUCUCAACUAUGACACGCAAAACGCGUGCUCCGUUGAAUGGAGUUUAUCAUG
GGAUCUUCUAGAUCUAACAAAACAGACAAAUCUGCCACAAAGCUUGAGAACAUCUUCGGAUGCAGAGGCGGCAGGCUUCGGUGGCGCGAUAGCGUAAACGUUCUCAACUAUGACACGCAAAAGGCGUGCUCCGUUGAAUGGAGUUUAUCAUG
GGAUCUUCUAGAUCUAACAGAAAAGACAAAUCUGCCACACAGCUUGAGAGCAUUUUCGGAUGCAGAGGCGGCAGCCUUCGGUAGCGCGAUAACGCCAACGUUCUCAACUAUGACACGCAAAACGCGUGCUGCGUUGAAUGUAGUUUAUCUUG
GGAUCUUCUAGAUCUAACAAAACACACAAAUCUGCCACAAAGCUUGAGAGCAUCUUCGGAUGCAGAGGCGGCAGCCUUCGGUGGCGCGAUAACGCCAACGUUCUCAACUAUGUCACGCAAAACGCGUGCUCCGUUGAAUGGAGUUUAUCAUG
GGAUCUUCUAGAUCUAACAAGAAAGACAAAUCUGCCACAAAGCUUGAGAGCAAAUUUGGAUGCAGAGGAGGCAGCCUUCGGUGGCGCGAUAGCGUCAACGUUCUCUACUAUGACACGCAAAACGCGUGCUCCGUUGAAUGGAAUUUAUCAUG
GGAUCUUCUAGAUCUAGCAAAAAAGACAAAUCUGCCACAAAGCUUGAGAGCUUCUUCGCAAGCAGAGGCGGCAGCCUUCGGUUGCGCGAUAGCGCCCACGUUCUCAAUUAUGACACGCAAAACGCGUGCUCCGAUGAAGGGAGUUUAUCAUG
GGAUCUUCUAGAUCUAGCAAAAAAGACAAAUCUGCCACAAAGCUUGAGAGCGUCUUCGGAUGCAGAGGCGGCAGCCUUCGGUGGCGCGAUGGCUCCAACGUUCUCAACUAUGACACGCAAAACGCGUGCUCCGUUGAAUGGGGUUGAUCAUG
